# Test results: the supplement of paper PMC8728848
# Some of the results follow.
# Columns and labels:
# Assay in all cases: glycan array binding signal (z-score within array); higher = stronger binding
# Settings in all cases: glycan notation: IUPAC condensed, linker removed
# [1] = target: Fuc(a1-2)[GalNAc(a1-3)]Gal(b1-3)GlcNAc(b1-2)Man(a1-3)[Fuc(a1-2)[GalNAc(a1-3)]Gal(b1-3)GlcNAc(b1-2)Man(a1-6)]Man(b1-4)GlcNAc(b1-4)[Fuc(a1-6)]GlcNAc
# Outline: (§1)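 Glycan array data came from 3228 arrays in the Consortium for Functional Glycomics database, and only arrays with an available protein sequence were kept. Glycan names were put into IUPAC-condensed notation, and columns mapping to the same glycan were averaged. The binding signal is a within-array Z-score, averaged across arrays of one protein sequence run at different concentrations or buffers and across linkers. A negative Z-score can be read as non-binding.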
# [2] = target: Fuc(a1-2)[GalNAc(a1-3)]Gal(b1-3)GlcNAc(b1-3)GalNAc
# Outline: as §1
# [3] = target: Fuc(a1-2)[GalNAc(a1-3)]Gal(b1-3)GlcNAc(b1-6)GalNAc
# Outline: as §1
# [4] = target: Fuc(a1-2)[GalNAc(a1-3)]Gal(b1-4)Glc
# Outline: as §1
# [5] = target: Fuc(a1-2)[GalNAc(a1-3)]Gal(b1-4)GlcNAc
# Outline: as §1
# [6] = target: Fuc(a1-2)[GalNAc(a1-3)]Gal(b1-4)GlcNAc(b1-2)Man
# Outline: as §1
# [7] = target: Fuc(a1-2)[GalNAc(a1-3)]Gal(b1-4)GlcNAc(b1-2)Man(a1-3)[Fuc(a1-2)[GalNAc(a1-3)]Gal(b1-4)GlcNAc(b1-2)Man(a1-6)]Man(b1-4)GlcNAc(b1-4)GlcNAc
# Outline: as §1
# [8] = target: Fuc(a1-2)[GalNAc(a1-3)]Gal(b1-4)GlcNAc(b1-2)Man(a1-3)[Fuc(a1-2)[GalNAc(a1-3)]Gal(b1-4)GlcNAc(b1-2)Man(a1-6)]Man(b1-4)GlcNAc(b1-4)[Fuc(a1-6)]GlcNAc
# Outline: as §1
# [9] = target: Fuc(a1-2)[GalNAc(a1-3)]Gal(b1-4)GlcNAc(b1-3)Gal(b1-4)GlcNAc
# Outline: as §1
# [10] = target: Fuc(a1-2)[GalNAc(a1-3)]Gal(b1-4)GlcNAc(b1-3)Gal(b1-4)GlcNAc(b1-3)Gal(b1-4)GlcNAc
# Outline: as §1
# [11] = target: Fuc(a1-2)[GalNAc(a1-3)]Gal(b1-4)GlcNAc(b1-3)GalNAc
# Outline: as §1
# [12] = target: Fuc(a1-2)[GalNAc(a1-3)]Gal(b1-4)GlcNAc(b1-3)[Fuc(a1-2)[GalNAc(a1-3)]Gal(b1-4)GlcNAc(b1-6)]GalNAc
# Outline: as §1
# [13] = target: Fuc(a1-2)[GalNAc(a1-3)]Gal(b1-4)GlcNAc(b1-6)GalNAc
# Outline: as §1
# [14] = target: Fuc(a1-2)[GalNAc(a1-3)]Gal(b1-4)[Fuc(a1-3)]GlcNAc
# Outline: as §1
# [15] = target: Fuc(a1-2)[GalNAc(a1-3)]Gal(b1-4)[Fuc(a1-3)]GlcNAc(b1-3)GalNAc
# Outline: as §1
# [16] = target: Fuc(a1-2)[GalNAc(a1-4)]Gal(b1-4)GlcNAc
# Outline: as §1
# [17] = target: Fuc(a1-2)[GalNAc(b1-3)]Gal
# Outline: as §1
# Fuc(a1-3)GlcNAc = target: Fuc(a1-3)GlcNAc
# Outline: as §1
# [18] = target: Fuc(a1-3)[Gal(b1-4)]Glc6S
# Outline: as §1
# [19] = target: Fuc(a1-3)[Gal(b1-4)]GlcNAc
# Outline: as §1
# [20] = target: Fuc(a1-3)[Gal(b1-4)]GlcNAc(b1-2)Man
# Outline: as §1
# [21] = target: Fuc(a1-3)[Gal(b1-4)]GlcNAc(b1-2)Man(a1-3)[Fuc(a1-3)[Gal(b1-4)]GlcNAc(b1-2)Man(a1-6)]Man(b1-4)GlcNAc(b1-4)GlcNAc
# Outline: as §1
# [22] = target: Fuc(a1-3)[Gal(b1-4)]GlcNAc(b1-2)Man(a1-3)[Fuc(a1-3)[Gal(b1-4)]GlcNAc(b1-2)Man(a1-6)]Man(b1-4)GlcNAc(b1-4)[Fuc(a1-6)]GlcNAc
# Outline: as §1
# [23] = target: Fuc(a1-3)[Gal(b1-4)]GlcNAc(b1-3)Gal(b1-3)[Fuc(a1-4)]GlcNAc
# Outline: as §1
# [24] = target: Fuc(a1-3)[Gal(b1-4)]GlcNAc(b1-3)Gal(b1-4)[Fuc(a1-3)]GlcNAc
# Outline: as §1
# [25] = target: Fuc(a1-3)[Gal(b1-4)]GlcNAc(b1-3)Gal(b1-4)[Fuc(a1-3)]GlcNAc(b1-3)Gal(b1-4)[Fuc(a1-3)]GlcNAc
# Outline: as §1
# [26] = target: Fuc(a1-3)[Gal(b1-4)]GlcNAc(b1-3)GalNAc
# Outline: as §1
# [27] = target: Fuc(a1-3)[Gal(b1-4)]GlcNAc(b1-4)Gal(b1-4)[Fuc(a1-3)]GlcNAc
# Outline: as §1
# [28] = target: Fuc(a1-3)[Gal(b1-4)]GlcNAc(b1-4)Gal(b1-4)[Fuc(a1-3)]GlcNAc(b1-4)Gal(b1-4)[Fuc(a1-3)]GlcNAc
# Outline: as §1
# [29] = target: Fuc(a1-3)[Gal(b1-4)]GlcNAc(b1-6)GalNAc
# Outline: as §1
# [30] = target: Fuc(a1-3)[Gal(b1-4)]GlcNAc(b1-6)[Gal(b1-3)GlcNAc(b1-3)]Gal(b1-4)Glc
# Outline: as §1
# [31] = target: Fuc(a1-3)[Gal(b1-4)]GlcNAc6S
# Outline: as §1
# [32] = target: Fuc(a1-3)[Gal3S(b1-4)]Glc
# Outline: as §1
# [33] = target: Fuc(a1-3)[Gal3S(b1-4)]GlcNAc
# Outline: as §1
# [34] = target: Fuc(a1-3)[Gal3S(b1-4)]GlcNAc6S
# Outline: as §1
# [35] = target: Fuc(a1-3)[GalNAc(b1-4)]GlcNAc
# Outline: as §1
# [36] = target: Fuc(a1-3)[GalNAc(b1-4)]GlcNAc6S
# Outline: as §1
binder,measurement,setting,value
"MAA (Maackia amurensis), P0DKL3 (protein) MATSNSKPTQVLLATFLTFFFLLLNNVNSSDELSFTINNFVPNEADLLFQGEASVSSTGVLQLTRVENGQPQKYSVGRALYAAPVRIWDNTTGSVASFSTSFTFVVKAPNPDITSDGLAFYLAPPDSQIPSGSVSKYLGLFNNSNSDSSNQIVAVELDTYFAHSYDPWDPNYRHIGIDVNGIESIKTVQWDWINGGVAFATITYLAPNKTLIASLVYPSNQTTFSVAASVDLKEILPEWVRVGFSAATGYPTEVETHDVLSWSFTSTLEANCDAATENNVHIARYTA",glycan array binding signal (z-score),[1],-0.195
same,glycan array binding signal (z-score),[2],-0.239
same,glycan array binding signal (z-score),[3],-0.259
same,glycan array binding signal (z-score),[4],-0.217
same,glycan array binding signal (z-score),[5],-0.228
same,glycan array binding signal (z-score),[6],-0.272
same,glycan array binding signal (z-score),[7],-0.235
same,glycan array binding signal (z-score),[8],-0.241
same,glycan array binding signal (z-score),[9],-0.236
same,glycan array binding signal (z-score),[10],-0.059
same,glycan array binding signal (z-score),[11],-0.128
same,glycan array binding signal (z-score),[12],-0.3
same,glycan array binding signal (z-score),[13],-0.264
same,glycan array binding signal (z-score),[14],-0.067
same,glycan array binding signal (z-score),[15],0.725
same,glycan array binding signal (z-score),[16],0.253
same,glycan array binding signal (z-score),[17],-0.178
same,glycan array binding signal (z-score),Fuc(a1-3)GlcNAc,-0.221
same,glycan array binding signal (z-score),[18],-0.125
same,glycan array binding signal (z-score),[19],-0.197
same,glycan array binding signal (z-score),[20],-0.261
same,glycan array binding signal (z-score),[21],-0.16
same,glycan array binding signal (z-score),[22],0.363
same,glycan array binding signal (z-score),[23],-0.121
same,glycan array binding signal (z-score),[24],-0.227
same,glycan array binding signal (z-score),[25],-0.07
same,glycan array binding signal (z-score),[26],-0.03
same,glycan array binding signal (z-score),[27],-0.094
same,glycan array binding signal (z-score),[28],-0.223
same,glycan array binding signal (z-score),[29],-0.156
same,glycan array binding signal (z-score),[30],-0.176
same,glycan array binding signal (z-score),[31],-0.2
same,glycan array binding signal (z-score),[32],-0.167
same,glycan array binding signal (z-score),[33],-0.203
same,glycan array binding signal (z-score),[34],2.89
same,glycan array binding signal (z-score),[35],-0.191
same,glycan array binding signal (z-score),[36],-0.246
